# No constants are given. Whether binding was seen depends on the method and setting. Binding seen in cells or lysates may run through a third protein. Some entries that bind do so weakly or less than the wild type.
# T1: hexokinase 1 (HK1), endogenous in H292 isogenic cells (human (endogenous in H292)) (UniProt P19367)
# T1 sequence: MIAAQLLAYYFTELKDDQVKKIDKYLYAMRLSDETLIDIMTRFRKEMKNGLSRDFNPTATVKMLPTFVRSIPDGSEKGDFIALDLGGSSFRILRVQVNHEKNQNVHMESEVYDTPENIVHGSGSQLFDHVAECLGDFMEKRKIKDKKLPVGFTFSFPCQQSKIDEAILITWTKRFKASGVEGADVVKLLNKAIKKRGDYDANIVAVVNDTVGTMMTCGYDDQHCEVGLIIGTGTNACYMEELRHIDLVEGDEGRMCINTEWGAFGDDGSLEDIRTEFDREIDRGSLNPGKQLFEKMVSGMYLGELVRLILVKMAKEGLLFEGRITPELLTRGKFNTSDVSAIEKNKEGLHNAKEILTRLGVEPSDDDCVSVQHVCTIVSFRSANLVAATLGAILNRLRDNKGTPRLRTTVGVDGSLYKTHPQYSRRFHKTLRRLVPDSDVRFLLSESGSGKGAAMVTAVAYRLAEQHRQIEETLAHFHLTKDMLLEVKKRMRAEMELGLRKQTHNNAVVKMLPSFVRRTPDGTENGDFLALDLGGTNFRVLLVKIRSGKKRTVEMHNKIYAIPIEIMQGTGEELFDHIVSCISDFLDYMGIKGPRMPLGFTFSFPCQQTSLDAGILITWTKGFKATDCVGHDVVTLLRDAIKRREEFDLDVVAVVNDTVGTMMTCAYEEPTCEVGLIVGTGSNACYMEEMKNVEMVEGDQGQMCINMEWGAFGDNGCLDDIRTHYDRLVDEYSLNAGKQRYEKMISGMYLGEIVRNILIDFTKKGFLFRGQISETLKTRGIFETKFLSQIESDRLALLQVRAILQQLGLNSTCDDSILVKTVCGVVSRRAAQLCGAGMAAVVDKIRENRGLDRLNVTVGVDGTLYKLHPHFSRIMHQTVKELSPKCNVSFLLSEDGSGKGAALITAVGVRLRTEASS
# Target: T1, hexokinase 1 (HK1), endogenous in H292 isogenic cells (human (endogenous in H292))
# Assay: co-IP; endogenous proteins; NP-40 lysates of H292 isogenic cells (KRAS WT and KRAS G12C) incubated with anti-NPPS or anti-HK1 at 4 °C overnight, Protein A/G magnetic beads 3 h; Western blot
binder,measurement,value
"nucleotide pyrophosphatase (NPPS), endogenous in H292 isogenic cells (protein, UniProt P22413 1-925) MERDGCAGGGSRGGEGGRAPREGPAGNGRDRGRSHAAEAPGDPQAAASLLAPMDVGEEPLEKAARARTAKDPNTYKVLSLVLSVCVLTTILGCIFGLKPSCAKEVKSCKGRCFERTFGNCRCDAACVELGNCCLDYQETCIEPEHIWTCNKFRCGEKRLTRSLCACSDDCKDKGDCCINYSSVCQGEKSWVEEPCESINEPQCPAGFETPPTLLFSLDGFRAEYLHTWGGLLPVISKLKKCGTYTKNMRPVYPTKTFPNHYSIVTGLYPESHGIIDNKMYDPKMNASFSLKSKEKFNPEWYKGEPIWVTAKYQGLKSGTFFWPGSDVEINGIFPDIYKMYNGSVPFEERILAVLQWLQLPKDERPHFYTLYLEEPDSSGHSYGPVSSEVIKALQRVDGMVGMLMDGLKELNLHRCLNLILISDHGMEQGSCKKYIYLNKYLGDVKNIKVIYGPAARLRPSDVPDKYYSFNYEGIARNLSCREPNQHFKPYLKHFLPKRLHFAKSDRIEPLTFYLDPQWQLALNPSERKYCGSGFHGSDNVFSNMQALFVGYGPGFKHGIEADTFENIEVYNLMCDLLNLTPAPNNGTHGSLNHLLKNPVYTPKHPKEVHPLVQCPFTRNPRDNLGCSCNPSILPIEDFQTQFNLTVAEEKIIKHETLPYGRPRVLQKENTICLLSQHQFMSGYSQDILMPLWTSYTVDRNDSFSTEDFSNCLYQDFRIPLSPVHKCSFYKNNTKVSYGFLSPPQLNKNSSGIYSEALLTTNIVPMYQSFQVIWRYFHDTLLRKYAEERNGVNVVSGPVFDFDYDGRCDSLENLRQKRRVIRNQEILIPTHFFIVLTSCKDTSQTPLHCENLDTLAFILPHRTDNSESCVHGKHDSSWVEELLMLHRARITDVEHITGLSFYQQRKEPVSDILKLKTHLPTFSQED",binding,binds

# — PMC11845791
